Measurements published in the supplement of paper PMC7726561.
Whole data set: some 1,100 sequences, median “thermal melting temperature (Tm) of peptide-HLA complex” near 58, cut for the lowest 2% near 42. The list shows a part of the results.

Target: HLA-A*02:01
Assay: thermal melting temperature (Tm) of peptide-HLA complex; higher = more thermostable pHLA complex
Details: C1R-A*02:01
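Further: cell lysates heated 10 min at 37–73 °C, remaining pHLA pulled down with pan-class I antibody, peptides quantified by DIA-MS versus 37 °C, Tm where half the complex is lost.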

Sequence	thermal melting temperature
YLDENYERI	52.2 °C
LLAILPEAARA	60 °C
AVIDVGINRV	54.2 °C
YLDEDTIYHL	45.2 °C
ELAKETFGV	51.9 °C
VLQDTVEQL	60.4 °C
QLLEKVPTL	61.7 °C
LLAETHYQL	57.2 °C
RLMNDMTAV	58.9 °C
VLADQVWTL	59 °C
SQWDSPMRV	59 °C
NQIEDNDDFQL	42 °C
FQDPVPLTV	55.2 °C
GLYEFPLNKV	61.7 °C
YLLDQHILI	64.5 °C
HIIENIVAV	59.6 °C
VLFEGRTVQL	57.3 °C
RLWDLTTGTTT	56.4 °C

Sequence	thermal melting temperature
ALNEEAGRLLL	62.1 °C
ALSALTARL	55.7 °C
SLDTQPKKV	40.4 °C
WLIEDGKVVTV	58.3 °C
ILSGIGVSQV	57.4 °C
LLYDLADQLHA	59.9 °C
VLKVFLENV	55.2 °C
MLDDRAYLV	61.5 °C
FLQPELVKL	59.1 °C
YLINEIDRI	61.8 °C
YLPPGFLSA	51.7 °C
FVMEGEPPKL	55.5 °C
TLSQAIVKV	54.1 °C
ALATLIHQV	63.3 °C
ALDEYNMKI	59.2 °C
KLLEEQGIFL	63.4 °C
RLPEIYIQL	58.7 °C
VMLDVPIRL	55.9 °C
